About 2,200 (0.71%) of roughly 310,000 compounds showed an effect of 50% or more. Effects have a minus sign here. The list shows a part of the results.

Data on 54 compounds can be found in PMC4336329 (PLoS ONE, 2015).

For the assay, the target named is human ether-à-go-go-related gene (hERG) potassium channel (human, UniProt Q12809). Kind of assay: primary screen, population patch clamp on CHO cells stably expressing hERG.
Chain of human ether-à-go-go-related gene (hERG) potassium channel (Q12809 whole entry, looked up): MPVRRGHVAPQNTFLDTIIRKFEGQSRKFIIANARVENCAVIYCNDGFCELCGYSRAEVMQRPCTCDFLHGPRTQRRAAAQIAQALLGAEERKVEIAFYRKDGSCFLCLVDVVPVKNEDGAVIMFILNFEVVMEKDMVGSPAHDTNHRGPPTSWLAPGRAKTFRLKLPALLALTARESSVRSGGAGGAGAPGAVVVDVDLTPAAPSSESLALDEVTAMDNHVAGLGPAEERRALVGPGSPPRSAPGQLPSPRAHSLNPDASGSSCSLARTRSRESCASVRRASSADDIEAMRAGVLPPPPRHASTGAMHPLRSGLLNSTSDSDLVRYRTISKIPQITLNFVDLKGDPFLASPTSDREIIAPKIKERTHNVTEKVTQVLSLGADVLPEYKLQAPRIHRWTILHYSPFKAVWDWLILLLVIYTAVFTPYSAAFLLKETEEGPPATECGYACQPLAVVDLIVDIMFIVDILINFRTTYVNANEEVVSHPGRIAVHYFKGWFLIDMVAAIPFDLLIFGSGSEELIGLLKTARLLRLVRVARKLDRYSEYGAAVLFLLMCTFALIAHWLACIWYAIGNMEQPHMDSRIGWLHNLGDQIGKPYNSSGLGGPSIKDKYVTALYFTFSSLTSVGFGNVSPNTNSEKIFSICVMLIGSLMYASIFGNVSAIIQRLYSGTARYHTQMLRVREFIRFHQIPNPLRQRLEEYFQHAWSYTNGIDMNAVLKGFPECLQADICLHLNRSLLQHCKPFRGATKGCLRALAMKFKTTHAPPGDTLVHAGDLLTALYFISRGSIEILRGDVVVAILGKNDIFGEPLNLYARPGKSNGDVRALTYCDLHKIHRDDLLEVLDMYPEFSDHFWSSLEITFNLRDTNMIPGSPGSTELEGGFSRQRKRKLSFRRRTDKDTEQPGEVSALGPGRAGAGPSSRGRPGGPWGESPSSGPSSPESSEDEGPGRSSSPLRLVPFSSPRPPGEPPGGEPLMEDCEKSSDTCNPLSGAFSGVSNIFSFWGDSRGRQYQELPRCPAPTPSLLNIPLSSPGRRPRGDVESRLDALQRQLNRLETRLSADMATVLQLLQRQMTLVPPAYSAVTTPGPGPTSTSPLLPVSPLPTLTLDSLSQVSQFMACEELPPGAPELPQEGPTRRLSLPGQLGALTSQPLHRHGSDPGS
Take `O=C(COC(=O)C1CC(=O)N(Cc2ccccc2)C1)Nc1ccc2c(c1)OCO2` (stereo not drawn): the “hERG current change (%, negative = inhibition) at 1uM” value is on record as 15.9%.

With `Cc1cc(Cl)ccc1OCC(=O)N/N=C1\CC2C=CCC12` (stereo not drawn), the “hERG current change (%, negative = inhibition) at 1uM” value is on record as -1.63%.

With `CN(C)C(=O)C1C2NC(=S)N(c3cccc(Cl)c3)C1(C)Oc1ccc(Cl)cc12` (stereo not drawn), the “hERG current change (%, negative = inhibition) at 1uM” value worked out at 13.8%.

With `CCc1nc2nc(C)c(NS(=O)(=O)c3ccc(Br)s3)c(=O)n2[nH]1`, the “hERG current change (%, negative = inhibition) at 1uM” value was determined as 12.5%.

In the case of `O=C(NCCCn1ccnc1)c1cnn2c1NC(c1ccccc1)CC2C(F)(F)F` (stereo not drawn), the “hERG current change (%, negative = inhibition) at 1uM” value came to 8.76%.

With `CCCOC(=O)c1c(NC(=O)CSc2nc(-c3ccco3)cc(C(F)(F)F)n2)sc(C(=O)OC)c1C`, the “hERG current change (%, negative = inhibition) at 1uM” value was -2.09%.

As for `Cc1cc(C(=O)Nc2ccon2)c(C)o1`, the “hERG current change (%, negative = inhibition) at 1uM” value worked out at 11.6%.

As to `Cc1ccc(C(=O)N2CCN(C3c4cccc5cccc(c45)C3NS(=O)(=O)c3ccccc3)CC2)cc1` (stereo not drawn), the “hERG current change (%, negative = inhibition) at 1uM” value was found to be 7.87%.

Turning to `Cc1cccc(Cn2cccc2/C=C2/C(=N)N3C=CSC3=NC2=O)c1`, the “hERG current change (%, negative = inhibition) at 1uM” value is recorded as 2.88%.

For `CC1Cc2ccccc2N1C(=O)CSc1nnc(-c2ccc(S(=O)(=O)N3CCCC3)cc2)n1C` (stereo not drawn), the “hERG current change (%, negative = inhibition) at 1uM” value was determined as 5.3%.

Regarding `CN1C(=S)SC(N(O)C(=O)Nc2ccccc2)C1(C)C` (stereo not drawn), the “hERG current change (%, negative = inhibition) at 1uM” value came out at 1.87%.

Consider `COc1ccc([C@@H]2CC(=O)c3c(O)cc(O[C@@H]4O[C@H](CO[C@@H]5O[C@@H](C)[C@H](O)[C@@H](O)[C@H]5O)[C@@H](O)[C@H](O)[C@H]4O)cc3O2)cc1O`, for which the “hERG current change (%, negative = inhibition) at 1uM” value was 11.5%.

On to `COc1ccc(CCN(C)C2CCCN(C(=O)CCSC)C2)cc1OC` (stereo not drawn), for which the “hERG current change (%, negative = inhibition) at 1uM” value is recorded as -15.5%.

For `COc1ccc(OC)c(NC(=O)c2sc3nc(C)cc(C)c3c2N)c1`, the “hERG current change (%, negative = inhibition) at 1uM” value was 14.6%.

For the compound `CC(=O)c1cccc(NS(=O)(=O)c2ccc(C(=O)Nc3ccccc3)cc2)c1`, the “hERG current change (%, negative = inhibition) at 1uM” value is given as 11%.

In the case of `CCc1n[nH]c(=S)n1/N=C/c1ccc(N(CC)CC)cc1`, the “hERG current change (%, negative = inhibition) at 1uM” value was determined as 12.5%.

Consider `CCCCNC(=O)O[C@@H]1C[C@H]2CCCC(=O)N3CC[C@@H](C1)[C@@H]23`, for which the “hERG current change (%, negative = inhibition) at 1uM” value is 7.26%.

Turning to `CC(C)(C#CCCCCC#CC(C)(C)[N+](C)(C)C)[N+](C)(C)C.[I-]`, the “hERG current change (%, negative = inhibition) at 1uM” value is recorded as 4.28%.

Regarding `CC1CCN(c2ccc3nnc(CCC(=O)N4CCN(c5ccccc5F)CC4)n3n2)CC1`, the “hERG current change (%, negative = inhibition) at 1uM” value is listed as -7.39%.

With `Cc1nc(N2CCCC2C(=O)O)c2oc3ccccc3c2n1` (stereo not drawn), the “hERG current change (%, negative = inhibition) at 1uM” value is on record as 12.4%.

For `Cc1ccc(CNC(=O)c2cccnc2)cc1`, the “hERG current change (%, negative = inhibition) at 1uM” value came to 13.2%.

`COc1cc(C2C(C#N)=C(N)Oc3cc(C)oc(=O)c32)cc(OC)c1OC` (stereo not drawn): the “hERG current change (%, negative = inhibition) at 1uM” value was found to be 20.5%.

Regarding `CCO[C@H]1OC(C(=O)N2CCCCCCC2)=C[C@@H](c2ccccc2)[C@@H]1CCCO`, the “hERG current change (%, negative = inhibition) at 1uM” value is given as 6.42%.

`CN(c1ccc(C(=O)Nc2cccc([N+](=O)[O-])c2)cc1)S(C)(=O)=O`: the “hERG current change (%, negative = inhibition) at 1uM” value is recorded as 2.74%.

For `COc1ccc(C(=O)Nc2nc(C)cc(C)n2)cc1`, the “hERG current change (%, negative = inhibition) at 1uM” value is -2.44%.

As to `CCNc1nc(Oc2ccc(C(=O)OCC)cc2)nc(SC)n1`, the “hERG current change (%, negative = inhibition) at 1uM” value was determined as 5.99%.

Turning to `CCN(C(=O)COC(=O)CC1CCCCC1)c1c(N)n(Cc2ccccc2)c(=O)[nH]c1=O`, the “hERG current change (%, negative = inhibition) at 1uM” value is 8.77%.

On to `c1ccc(CNc2ncnc3scc(-c4cccs4)c23)nc1`, for which the “hERG current change (%, negative = inhibition) at 1uM” value is listed as 1.24%.

As for `CCOc1ccc2nc(N3CCC(C(=O)N4CCN(C5CCCCC5)CC4)CC3)sc2c1`, the “hERG current change (%, negative = inhibition) at 1uM” value is on record as -8.64%.

Turning to `CCOC(=O)C1=C(C)N(CCCC(=O)O)C(=O)NC1c1ccccc1OC(=O)c1cccs1` (stereo not drawn), the “hERG current change (%, negative = inhibition) at 1uM” value was determined as 14.6%.

For the compound `Cc1ccc(C(C)NC(=O)c2cccs2)cc1C` (stereo not drawn), the “hERG current change (%, negative = inhibition) at 1uM” value is given as 7.25%.

For `Clc1ccc(CN(Cc2ccccc2)C(c2cccs2)c2nnnn2C2CCCC2)cc1` (stereo not drawn), the “hERG current change (%, negative = inhibition) at 1uM” value was determined as 3.78%.

In the case of `COc1cccc(CNC(=O)c2cccc(Br)c2)c1`, the “hERG current change (%, negative = inhibition) at 1uM” value turned out to be 9.15%.

In the case of `CCOc1ccc(/C=C/c2nc(C#N)c(NCCCN(C)C)o2)cc1`, the “hERG current change (%, negative = inhibition) at 1uM” value is -2.12%.

`COc1ccccc1/C=C1\SC(=S)N(CCC(=O)Nc2ccc(C(=O)O)c(O)c2)C1=O`: the “hERG current change (%, negative = inhibition) at 1uM” value is reported as 2.92%.

As for `COc1ccc2cnn(-c3ccc(OC(F)(F)Cl)cc3)c(=O)c2c1OC`, the “hERG current change (%, negative = inhibition) at 1uM” value came to 13.5%.

Consider `COCCn1c(=N)c(S(=O)(=O)c2ccc(Br)cc2)cc2c(=O)n3ccccc3nc21`, for which the “hERG current change (%, negative = inhibition) at 1uM” value stood at 9.15%.

With `O=C(NC1CCCCC1)c1ccc(CS(=O)(=O)Cc2ccccc2F)o1`, the “hERG current change (%, negative = inhibition) at 1uM” value came to 11.3%.

As to `COc1ccc(/C=N/NC(=O)c2cccc3ccccc23)c(OC)c1OC`, the “hERG current change (%, negative = inhibition) at 1uM” value is recorded as 8.62%.

`COC(=O)C1=C(c2ccccc2OCc2ccccc2)C[C@@H]2CC[C@H]1N2C(=O)NCc1ccc(Cl)cc1`: the “hERG current change (%, negative = inhibition) at 1uM” value was determined as 19.3%.

Turning to `Cc1ccc(C)c(S(=O)(=O)N2CCCOC2CNC(=O)C(=O)NCCCN2CCOCC2)c1` (stereo not drawn), the “hERG current change (%, negative = inhibition) at 1uM” value came out at 7.91%.

For the compound `Cc1ccccc1C(=O)NC(=S)Nc1ccccc1C(F)(F)F`, the “hERG current change (%, negative = inhibition) at 1uM” value came to 10.8%.

`COc1cccc(/C=C2\N=C(c3c(-c4ccccc4)noc3C)OC2=O)c1`: the “hERG current change (%, negative = inhibition) at 1uM” value is 13.2%.

In the case of `S=C(NCc1ccco1)Nc1cccc(Cl)c1Cl`, the “hERG current change (%, negative = inhibition) at 1uM” value is reported as -1.87%.

With `CN1CCCC(C(=O)c2ccc(Cl)cc2)C1` (stereo not drawn), the “hERG current change (%, negative = inhibition) at 1uM” value is reported as -2.93%.

As for `COc1cc(C(=O)O/N=C(\N)Cc2ccc([N+](=O)[O-])cc2)cc(OC)c1OC`, the “hERG current change (%, negative = inhibition) at 1uM” value was determined as 1.03%.

On to `COc1cccc(-n2ccnc2SCC(=O)Nc2ccccc2F)c1`, for which the “hERG current change (%, negative = inhibition) at 1uM” value stood at 2.05%.

For the compound `Cn1cc(S(=O)(=O)NCC2CCCO2)c(=O)n(C)c1=O` (stereo not drawn), the “hERG current change (%, negative = inhibition) at 1uM” value is recorded as -5.14%.

For the compound `O=C(O)c1cc(O)c2c(c1)C(=O)c1cc(O)cc(O)c1C2=O`, the “hERG current change (%, negative = inhibition) at 1uM” value turned out to be 15.4%.

With `COc1ccccc1/C=N/NC(=O)CC(=O)NCc1cccnc1`, the “hERG current change (%, negative = inhibition) at 1uM” value is given as 12.1%.

With `COc1ccc(CN(C)Cc2nc3cc(OC)c(OC)cc3c(=O)[nH]2)c(OC)c1`, the “hERG current change (%, negative = inhibition) at 1uM” value is 4.79%.

Turning to `Cc1ccc(NC(=O)C2CCCN2C(=O)OCc2ccccc2)c(C)c1` (stereo not drawn), the “hERG current change (%, negative = inhibition) at 1uM” value is -0.547%.

On to `S=C(Nc1ccccc1)N1CCN(C2CCCCC2)CC1`, for which the “hERG current change (%, negative = inhibition) at 1uM” value came out at 5.84%.

`O=C(O)c1cccc(S(=O)(=O)Nc2ccc3c(c2)CCC3)c1`: the “hERG current change (%, negative = inhibition) at 1uM” value came to 17.2%.
